Some of the results follow.
T1: UNK ZnF1-3 (human, UniProt Q9C0B0 31-174)
T1 sequence: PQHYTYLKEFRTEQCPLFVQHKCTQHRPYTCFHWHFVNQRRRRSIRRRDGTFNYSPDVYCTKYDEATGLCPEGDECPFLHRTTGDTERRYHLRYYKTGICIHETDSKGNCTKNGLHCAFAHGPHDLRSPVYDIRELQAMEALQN

B1: chr10:98431539:98431540:+_ENSMUSG00000019943_ENSMUST00000020107|mus_mus|FALSE|FALSE (ssRNA)
RNA: GGGAGUUCUACAGUCCGACGAUCCGUAAUUCCAAAGUCUCCAUCAUGGUUAGCUUCUUUCAAAGAGUUCUUCACACCGCUAUACGCAACUGAGUUGUUGGCCAUGUCGCCCAUCACAAGGAUAAUUUAUUAGGAGGAAAAUGUCAACAGAGGAUUGAGCAUCA
B2: chr12:48362563:48362564:+_ENSG00000134291_ENST00000256686|hu_hu|hu_hu_hu_mus_False|8_48 (ssRNA)
RNA: GGGAGUUCUACAGUCCGACGAUCUCCGUCAAGCCCUUCGAUAGACCCUUGCGGGGGAAACUGUAAUCACUUUGUAUGGGGAAGGAAAAAAAAAGCCAAAAACUUUCCAAAAAGCGGGGGUGGGGUGUCCCAGGCCUGGGAGGUCAACAGAGGAUUGAGCAUCA
B3: chr11:86535762:86535763:-_ENSMUSG00000047126_ENSMUST00000103186|mus_mus|FALSE|FALSE (ssRNA)
RNA: GGGAGUUCUACAGUCCGACGAUCUGCAAAGCACUGGAUGACUUUAUUAGGUACAUUGGCCCUGAGGUAAACACUCAGUGCUAAUGUUGGGUCCACAGAUUUAACGAGAUCACCCAGUUCUUCAGAACAUUCCAGCUUAUCUUCCAACAGAGGAUUGAGCAUCA
B4: 3760353_3760473_1773_3pUTR_ENSMUSG00000028234_ENSMUST00000138502|mouse|control|control (ssRNA)
RNA: GGGAGUUCUACAGUCCGACGAUCCUGUAGGAACAUUUAAAAAGUUCUAUGGUAAGCAUUUCCCUUUAUGGUCCUCCCCUUAGAAGCAGUUUCUUCUGGAACCUCUAUGGGACACUGUUGCCAGUUUAACUUUAAACACAAAAGCAACAGAGGAUUGAGCAUCA
B5: chr5:121887652:121887653:+_ENSMUSG00000042719_ENSMUST00000042163|mus_mus|motif|central (ssRNA)
RNA: GGGAGUUCUACAGUCCGACGAUCGAAGACCAGAUUCUCUAGGACUGCAGGCUGGGUCUUCACAUUGCCAUCUGUAACUUCGGAGAGGUCCCCUUUACAUGUGCUGAAGACACCUUUCAAUAGUUCUAGUAAAGAUGCAAGACUCAACAGAGGAUUGAGCAUCA
B6: chr17:66335897:66335898:-_ENSMUSG00000034647_ENSMUST00000038116|mus_hu|FALSE|FALSE (ssRNA)
RNA: GGGAGUUCUACAGUCCGACGAUCCUUCAAUUUAUGUUUUUUUAAUGUUUUACCUUCUUUAUCCAUUUUUUUCAGUGUGCAAUCUGAAUUUUCAAAUGUUGGACUAUGAUCUUCAUCCUUUAUUUUGGCAUUUGAUUUUUCACCCAACAGAGGAUUGAGCAUCA
B7: chr15:96202663:96202664:+_ENSMUSG00000033237_ENSMUST00000096250|mus_mus|motif|central (ssRNA)
RNA: GGGAGUUCUACAGUCCGACGAUCACUGCUUGUGGACGGUGACCCACCCAGAGUUAACACAGGUCCAUUAGAAACUCUUUCGGGUUGGUCACCUUUGGCAGUAUCUUGCUGAGUGGCACCCGAAGUCCCUUGUGGUUCUACUGGCAACAGAGGAUUGAGCAUCA
B8: chr11:97371553:97371554:-_ENSMUSG00000038453_ENSMUST00000107596|mus_mus|FALSE|FALSE (ssRNA)
RNA: GGGAGUUCUACAGUCCGACGAUCCACAAUCCCAUACAAAUUCCUUCCAGGACACACUCGCGCAGUAACCAAAUUGAAGAACUAGAACUACGCAAAGCCCACGGGGGCCUUGCCUGAGCUCGUGGGGCAGCCCCUGCAUGAAUACAACAGAGGAUUGAGCAUCA
B9: chr16:94690093:94690094:+_ENSMUSG00000040785_ENSMUST00000117648|mus_hu|mus_mus_mus_hu_True|38_78 (ssRNA)
RNA: GGGAGUUCUACAGUCCGACGAUCGGGCUGGGAUGACGGACACACAGCCUCGAUUCCGGUAAAAAAAAGUCUUAGUCGAUACUAAUUAAAAAGUGUUUUUAUAAUUGGAAAAUCAGAUUACAUCUAUAAAAGAUGAAAAGCAAACAACAGAGGAUUGAGCAUCA
B10: chr15:25293464:25293465:-_ENSMUSG00000045763_ENSMUST00000058845|mus_mus|FALSE|FALSE (ssRNA)
RNA: GGGAGUUCUACAGUCCGACGAUCAAAAAUAUCUGGAGAGGAAAAAUGGAGGGUUGGCAUUGAGAUACAUGUGGACAAGCUAAGUGGGCUCCGUCUGAAAGUUGGCAUUCAUCCACGAACGUUUAAAAAAAUACCAAAAAAAUUCAACAGAGGAUUGAGCAUCA
B11: chr6:41757443:41757444:+_ENSG00000214736_ENST00000398881|hu_mus|hu_hu_hu_mus_False|18_88 (ssRNA)
RNA: GGGAGUUCUACAGUCCGACGAUCGAACCGUGCAGAGGCAACAUCUCGGAAUUCUGCGGGGGAUGGGGGGGCAGUGGGGGGGGGUUCAGGCAAGGAGAGGGAGUCAACUUCAGCUGCUCAAACUUCAGGAUCUUGUGGUCACAGCAACAGAGGAUUGAGCAUCA
B12: chr2:29769918:29769919:+_ENSMUSG00000026790_ENSMUST00000113756|mus_mus|FALSE|FALSE (ssRNA)
RNA: GGGAGUUCUACAGUCCGACGAUCCUGCAAAUGCCCCCGCAUGGACUCCAUGGACUUGGAAAGCUCAGACGCUGUCUUUGCUUGAGCCUUUUCACAUUGUAUCUCCUGGAGGAGUUCUUCCACCUCCUUGUCCUUGUCUUGCAGCAACAGAGGAUUGAGCAUCA
B13: chr10:112362727:112362728:-_ENSMUSG00000074748_ENSMUST00000099276|mus_hu|FALSE|FALSE (ssRNA)
RNA: GGGAGUUCUACAGUCCGACGAUCGAUCCCAGCAUGCGAUAAUGCCAGGCAGUGGUCCCUGGGCAUGCGAUGGUGGGAACUAAUGUAUGGAAGAAAAAGCCACAAACCACAGAAAUUUUAAAGAACCCCCCCCUUCCCCCAUAACAACAGAGGAUUGAGCAUCA
B14: chr5:134670393:134670394:-_ENSG00000113648_ENST00000304332|hu_mus|motif|central (ssRNA)
RNA: GGGAGUUCUACAGUCCGACGAUCAGGGGAGGGACCGCUGCUCCGCUGCUCUGUGUUAAUCAGGACUUCAUUAGAGUGAAACGGUAAAAUCCUCUAGGUUGACUAAGUCAGACACGGUCUGGAAAGCAGUGCUUAACAAGGACGCAACAGAGGAUUGAGCAUCA
B15: chr4:103720638:103720639:-_ENSG00000109332_ENST00000394803|hu_hu|FALSE|FALSE (ssRNA)
RNA: GGGAGUUCUACAGUCCGACGAUCGAUCCGUGCAAUCUCUGGCACUAGGGGGUCAUCUGGGUUUGGAUCACAUAGCAGUGAACAAAUGGAUAAAAGAACUUUAGAAAUUGUUAAAGCAGGCGACCACUGUGAUCUUAGAAUAUCCAACAGAGGAUUGAGCAUCA
B16: chr11:61589858:61589859:-_ENSMUSG00000004798_ENSMUST00000004920|mus_hu|FALSE|FALSE (ssRNA)
RNA: GGGAGUUCUACAGUCCGACGAUCUUCAAGAAUAAUGCAUGCAGUUACAAAUGAGAGGUAGAAACACUGUAUUAAAGACCUAAAAAUACAAACGUCAUAUAAAUAAAUGUUCAAAUUAACUACUGGAAUUUCAUACAGAUAAAUCAACAGAGGAUUGAGCAUCA
B17: 121499381_121518024_256_CDS_ENSMUSG00000028127_ENSMUST00000029770|mouse|control|control (ssRNA)
RNA: GGGAGUUCUACAGUCCGACGAUCUGGCGGUUUUCCACUUUUCUUACCGUGCAGGCCGAGGGCGCGACGCCGCUUAUGGAGUAGGCAGAGCAGCAGGAACGCGGCCCCCGCCAGCGAGGUGUUCCGUGCCGUCAAGUACUUGCUCAACAGAGGAUUGAGCAUCA
B18: chr1:39494447:39494448:+_ENSG00000168653_ENST00000372967|hu_mus|hu_hu_hu_mus_False|28_38 (ssRNA)
RNA: GGGAGUUCUACAGUCCGACGAUCGCACCGAGCGGCGUUCUUAUAGGGCUGUUCUGCGCUUAGGAACAUAAAGUGCCGGUCCAGGCUGAUGCCCAGCCUUUUCUGGAUGUCCAAGAAAGGCAUGGCUCUGCAGUGCCCUUGUCACAACAGAGGAUUGAGCAUCA
B19: 85028687_85029981_564_CDS_ENSMUSG00000018481_ENSMUST00000018625|mouse|control|control (ssRNA)
RNA: GGGAGUUCUACAGUCCGACGAUCGAAGGAGUAGGCCAAGACGGAAGCUACCUUAACGCCAUGGUCCAUCAGAGCCUGAAAACAGUGGUGGAGCAAAUGUCUUUUAUCCAAAGCUCUCAAAACUUUAGCAAAAACUUCCAAUUCCAACAGAGGAUUGAGCAUCA
B20: chr11:60965389:60965390:-_ENSMUSG00000042506_ENSMUST00000041683|mus_mus|motif|central (ssRNA)
RNA: GGGAGUUCUACAGUCCGACGAUCCCCCUCAAAAUGACAAGGGAAAGAAAAGUGACAUAAAUGUCUUGGUAAUAAAACUCCGGACCACAGUACAAUCAUUGGAUUUUUUUUCCCUCACGAUUUUUUAUUUCAAAGCUAUAAUAACAACAGAGGAUUGAGCAUCA
B21: chr16:16313726:16313727:-_ENSMUSG00000022789_ENSMUST00000023477|mus_hu|FALSE|FALSE (ssRNA)
RNA: GGGAGUUCUACAGUCCGACGAUCUACAAUGACUCUAUGUGAGGAACUUGCCAACUCACAUCUUUCAAAGCCAGAUCAGCUUAUAUAGUACAUGCAUUAUAGUCAUAUGAAAUGUUGUCUUGGUGCUUUCUUCUUGGAGGACUACAACAGAGGAUUGAGCAUCA
B22: chr8:24049560:24049561:+_ENSMUSG00000031540_ENSMUST00000044331|mus_mus|FALSE|FALSE (ssRNA)
RNA: GGGAGUUCUACAGUCCGACGAUCGCUGUUGACAGAGCGGACUGACUGGCUAGGAUGAGACGGAAUGGAGGAUAUCGGGCUAUUAUGCUCUGAAGCAUGACAGUCUUCAACCAUUGACAUCUGGGGGUCCUCAUCAGUGUGGGUCAACAGAGGAUUGAGCAUCA

What follows are binders tested against T1, UNK ZnF1-3 (assay: nsRBNS (natural sequence RNA bind-n-seq); RBNS binding buffer (assumed for nsRBNS): 25 mM Tris pH 7.5, 150 mM KCl, 3 mM MgCl2, 0.01% Triton X-100, 500 ug/ml BSA, 20 U/ml SUPERase-In, 4 C; UNK is unkempt and MSI1 is Musashi-1; names of the RNAs are library labels; protein concentration not given here; high values mean tight binding).

Row | Binder | binding signal [enrichment R]
1 | B1 | 1.36
2 | B2 | 1.81
3 | B3 | 0.55
4 | B4 | 0.821
5 | B5 | 1.11
6 | B6 | 0.218
7 | B7 | 0.459
8 | B8 | 1.09
9 | B9 | 1.62
10 | B10 | 2.72
11 | B11 | 2.83
12 | B12 | 0.532
13 | B13 | 1.91
14 | B14 | 1.01
15 | B15 | 1.75
16 | B16 | 1.64
17 | B17 | 0.726
18 | B18 | 0.743
19 | B19 | 0.9
20 | B20 | 1.16
21 | B21 | 1.08
22 | B22 | 1.13
